Measurements from the antibiotic and cytotoxicity screens of Wong et al. (2023).
The other results are listed elsewhere or left out.

Tested on: S. aureus RN4220
Test: growth inhibition call (relative growth <= 0.2)
Details: 50 µM

SMILES | growth inhibition call
C[C@H](CO)N1C[C@H](C)[C@@H](CN(C)C(=O)Oc2cccc3ccccc23)OCc2cnnn2CCCC1=O | inactive
COc1ccc(CCN)cc1OC | inactive
C1COC2(CCNCC2)OC1 | inactive
CC(CCc1ccccc1)NC(C)C(O)c1ccc(O)cc1.Cl (stereo not drawn) | inactive
O=C1C=CC(=O)C=C1 | inactive
CC(=O)OCC1=C(C(=O)[O-])N2C(=O)C(NC(=O)CCCC(N)C(=O)[O-])C2SC1.[Zn+2] (stereo not drawn) | inactive
N#C[C@]1(O)CN2CCC1CC2 | inactive
CCn1cnc2c(Nc3cccc(Cl)c3)nc(N[C@@H]3CCCC[C@@H]3N)nc21 | inactive
C[C@H]1C[C@H]2CNCC[C@@H]2O1 | inactive
CCCCCCCCCCCCCCCC[n+]1ccccc1 | inactive
CN1CCc2cc3c(cc2C1C1OC(=O)c2c1ccc1c2OCO1)OCO3 (stereo not drawn) | inactive
CC1=C2C3OC(=O)C(C)C3CCC2(C)C=CC1=O (stereo not drawn) | inactive
CNC(=O)Oc1ccc2c(c1)C1(C)CCN(C)C1N2C.O=C(O)c1ccccc1O (stereo not drawn) | inactive
COC(=O)NC(=S)Nc1ccccc1NC(=S)NC(=O)OC | inactive
CCOC(=O)c1c(CN2CCN(c3ccccc3)CC2)n(Cc2ccccc2)c2cc(Br)c(O)cc12 | inactive
O.O=P1(N(CCCl)CCCl)NCCCO1 (stereo not drawn) | inactive
Oc1ccc(Cl)cc1 | inactive
CN(C)[C@@H]1C(=O)[C@H](C(N)=O)C(=O)[C@@]2(O)C(=O)[C@@H]3C(=O)c4c(O)cccc4[C@@](C)(O)[C@H]3C[C@@H]12 | active
COCC12CN(C=O)C3C4C(OC)C1C3(C(OC)CC2O)C1CC2(O)C(OC)C(O)C4(OC(C)=O)C1C2OC(=O)c1ccccc1 (stereo not drawn) | inactive

SMILES | growth inhibition call
CC(C)(C)OC(=O)N1C[C@H]2C[C@@H]1CN2 | inactive
CC(C)(C)c1o[nH]c(=O)c1C[C@@H](N)C(=O)O | inactive
C[C@@H]1O[C@@H](O[C@@H]2C[C@@H](O)[C@]3(CO)[C@H]4[C@H](O)C[C@]5(C)[C@@H](C6=CC(=O)OC6)CC[C@]5(O)[C@@H]4CC[C@]3(O)C2)[C@H](O)[C@H](O)[C@H]1O | inactive
C[C@@H]1CN([C@@H](C)CO)C(=O)c2c(c3ccccc3n2C)-c2ccccc2CO[C@@H]1CN(C)C(=O)Oc1ccccc1 | inactive
CC(=O)Oc1ccc(Cl)c2cccnc12 | inactive
C1CCNCC1 | inactive
C[C@H]1[C@H](O)[C@@H](C)/C=C\C=C/CC\C=C/C=C\C=C/C=C\[C@@H](O[C@@H]2O[C@H](C)[C@@H](O)[C@H](N)[C@@H]2O)C[C@H]2O[C@@](O)(C[C@@H](O)[C@@H]2C(=O)O)C[C@@H](O)[C@@H](O)CC[C@@H](O)C[C@@H](O)C[C@@H](O)CC(=O)O[C@H]1C | inactive
CCCN1CC(CSC)CC2c3cccc4[nH]cc(c34)CC21.CS(=O)(=O)O (stereo not drawn) | inactive
O=C(CCCN1CCC2(CC1)C(=O)N(Cc1cccc(F)c1)CN2c1ccccc1)c1ccc(F)cc1 | inactive
CC(=C1C(=O)NC(=O)NC1=O)c1ccc(N)cc1 | inactive
CC1(C)C(=O)C=CC2(C)C1CC(O)C1(C)C2CCC2(C)C(c3ccoc3)OC(=O)C3OC321 (stereo not drawn) | inactive
NN=C(N)N | inactive
Cc1cccc(C)c1NC1=NCCCS1 | inactive
c1ccc2c(c1)Nc1ccccc1S2 | inactive
C[C@@H]1CC[C@@]2(OC1)O[C@H]1[C@@H](O)[C@H]3[C@H]4CC[C@H]5C[C@H](O[C@@H]6O[C@H](CO)[C@H](O[C@@H]7O[C@H](CO)[C@@H](O)[C@H](O[C@@H]8OC[C@@H](O)[C@H](O)[C@H]8O)[C@H]7O[C@@H]7O[C@H](CO)[C@H](O)[C@H](O[C@@H]8O[C@H](CO)[C@@H](O)[C@H](O)[C@H]8O)[C@H]7O)[C@H](O)[C@H]6O)[C@H](O)C[C@]5(C)[C@@H]4CC[C@]3(C)[C@H]1[C@@H]2C | inactive
CC(=O)O[C@H]1C[C@H](O[C@H]2[C@@H](O)C[C@H](O[C@H]3[C@@H](O)C[C@H](O[C@H]4CC[C@@]5(C)[C@@H](CC[C@H]6[C@@H]5C[C@@H](O)[C@]5(C)[C@@H](C7=CC(=O)OC7)CC[C@]65O)C4)O[C@@H]3C)O[C@@H]2C)O[C@H](C)[C@H]1O[C@@H]1O[C@H](CO)[C@@H](O)[C@H](O)[C@H]1O | inactive
CO[C@H]1[C@H]2CC[C@@H]1NC2 | inactive
C[C@@]12C(=O)OC(=O)[C@]1(C)[C@H]1CC[C@@H]2O1 | inactive
CCCCCCCCCC(=O)O[C@@H]1[C@@H](C)[C@@]2(O)[C@@H](C=C(CO)C[C@]3(O)C(=O)C(C)=C[C@@H]23)[C@@H]2C(C)(C)[C@]12OC(=O)CCCCCCCCC | inactive
